From PubChem BioAssay (NCATS)
Values joined by “and” are separate entries in the source; they are usually repeats but may differ in a detail not shown here. Identical values can stand only once. Inconclusive results, whose numbers are uncertain, are shown with a selection of clear calls. Potencies of inconclusive entries are doubtful fits and often do not repeat. Active and inactive are the calls of the source. The call rests on the fitted dose curve; in most records, active means well fitted curve in the direction sought with a large enough effect; inconclusive means small, poorly fitted or top-dose-only effect, or another doubt; inactive means no such curve, though single readings can be large; an effect the other way counts as inactive or inconclusive.

How the values were obtained:
[1] = Viability qHTS for spleen associated tyrosine kinase inhibitor (SYKi) naive MV4-11 cells (AID 1963823); conditions: MV4-11 AML viability, CellTiter-Glo luminescence, 72 h; series mostly up to 45 µM; further: nearly all actives have a fitted effect of over 40% in size
Outline: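 qHTS, SYK inhibitor-naive MV4-11; 500 cells/well; 72 hr compound exposure, 37 C; CellTiter-Glo added, 10 min RT; luminescence read.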

[2] = Cellular viability qHTS for adrenocortical cancer (ACC) cell line NCI-H295R (AID 1963990); conditions: CellTiter-Glo ATP luminescence, 48 h; series mostly up to 46.1 µM; further: nearly all actives have a fitted effect of over 60% in size
Outline: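 CellTiter-Glo ATP luminescence, read 48 h after compound addition, measured viability of NCI-H295R adrenocortical cells grown serum-free with ITS. Final concentrations spanned up to 46 uM. Data normalized to DMSO and doxorubicin, fitted for IC50 and maximal response.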
Potency means the concentration at half of the fitted maximal effect; tags describe the fitted curve by direction and shape.

Question: With `C=CC(=O)N1C[C@H](Nc2ncnc3[nH]ccc23)CC[C@@H]1C` as the compound, how does the Potency [1] read?
Answer: inconclusive: 13.2 µM [cytotoxic, partial curve]

Question: What about the Potency [2] of the same compound?
Answer: inactive

Question: With `NC(=O)c1cc(F)cc2c1C(=O)N(C1CCN(C3CCC(F)(F)CC3)CC1)C2` as the compound, how does the Potency [1] read?
Answer: inconclusive: 18.6 µM [cytotoxic, partial curve, poor fit]

Question: What about the Potency [2] of the same compound?
Answer: inconclusive: 35.5 µM [cytotoxic, partial curve, poor fit]

Question: Which results are given for `Cc1cc(C(=O)Nc2cc(Nc3ccc4c(/C=C/c5ccccn5)n[nH]c4c3)ccc2F)n(C)n1`?
Answer: Potency [1]: active: 9.2 µM and active: 5.25 µM; Potency [2]: inconclusive: 11.2 µM [cytotoxic, full curve, poor fit]

Question: Which Potency [1] does the source give for `COc1ccccc1C(=O)Nc1cc2c(cc1N1CCCC1)n(C)c(=O)n2C` here?
Answer: active: 8.2 µM

Question: What about the Potency [2] of the same compound?
Answer: inconclusive: 35.5 µM [cytotoxic, single point]

Question: Which Potency [1] does the source give for `CCOC(=O)[C@H]1O[C@@H]1C(=O)N[C@@H](CC(C)C)C(=O)NCCC(C)C` here?
Answer: inconclusive: 10.5 µM [cytotoxic, partial curve]

Question: What about the Potency [2] of the same compound?
Answer: inconclusive: 35.5 µM [cytotoxic, single point]

Question: What does the source list for `Cc1c(Cn2ccnc2)c2ccccc2n1CCC(=O)O`?
Answer: Potency [1]: inconclusive: 0.944 µM [cytotoxic, partial curve, poor fit]; Potency [2]: inactive

Question: With `O=C(Nc1ccnc(NC(=O)C2CC2)c1)c1c(Cl)cccc1Cl` as the compound, how does the Potency [1] read?
Answer: active: 5.17 µM

Question: And the Potency [2]?
Answer: active: 11.2 µM

Question: Which results are given for `Oc1cc(O)c2c(c1)O[C@H](c1ccc(O)c(O)c1)[C@H](O)C2`?
Answer: Potency [1]: inactive; Potency [2]: inactive
